In all, about 310,000 compounds went through this assay and about 2,200 (0.71%) showed an effect of 50% or more. Effects have a minus sign here. Some of the results follow.
Target: human ether-à-go-go-related gene (hERG) potassium channel (human, UniProt Q12809)
Test: primary screen, population patch clamp on CHO cells stably expressing hERG

human ether-à-go-go-related gene (hERG) potassium channel, sequence (Q12809 whole entry, looked up): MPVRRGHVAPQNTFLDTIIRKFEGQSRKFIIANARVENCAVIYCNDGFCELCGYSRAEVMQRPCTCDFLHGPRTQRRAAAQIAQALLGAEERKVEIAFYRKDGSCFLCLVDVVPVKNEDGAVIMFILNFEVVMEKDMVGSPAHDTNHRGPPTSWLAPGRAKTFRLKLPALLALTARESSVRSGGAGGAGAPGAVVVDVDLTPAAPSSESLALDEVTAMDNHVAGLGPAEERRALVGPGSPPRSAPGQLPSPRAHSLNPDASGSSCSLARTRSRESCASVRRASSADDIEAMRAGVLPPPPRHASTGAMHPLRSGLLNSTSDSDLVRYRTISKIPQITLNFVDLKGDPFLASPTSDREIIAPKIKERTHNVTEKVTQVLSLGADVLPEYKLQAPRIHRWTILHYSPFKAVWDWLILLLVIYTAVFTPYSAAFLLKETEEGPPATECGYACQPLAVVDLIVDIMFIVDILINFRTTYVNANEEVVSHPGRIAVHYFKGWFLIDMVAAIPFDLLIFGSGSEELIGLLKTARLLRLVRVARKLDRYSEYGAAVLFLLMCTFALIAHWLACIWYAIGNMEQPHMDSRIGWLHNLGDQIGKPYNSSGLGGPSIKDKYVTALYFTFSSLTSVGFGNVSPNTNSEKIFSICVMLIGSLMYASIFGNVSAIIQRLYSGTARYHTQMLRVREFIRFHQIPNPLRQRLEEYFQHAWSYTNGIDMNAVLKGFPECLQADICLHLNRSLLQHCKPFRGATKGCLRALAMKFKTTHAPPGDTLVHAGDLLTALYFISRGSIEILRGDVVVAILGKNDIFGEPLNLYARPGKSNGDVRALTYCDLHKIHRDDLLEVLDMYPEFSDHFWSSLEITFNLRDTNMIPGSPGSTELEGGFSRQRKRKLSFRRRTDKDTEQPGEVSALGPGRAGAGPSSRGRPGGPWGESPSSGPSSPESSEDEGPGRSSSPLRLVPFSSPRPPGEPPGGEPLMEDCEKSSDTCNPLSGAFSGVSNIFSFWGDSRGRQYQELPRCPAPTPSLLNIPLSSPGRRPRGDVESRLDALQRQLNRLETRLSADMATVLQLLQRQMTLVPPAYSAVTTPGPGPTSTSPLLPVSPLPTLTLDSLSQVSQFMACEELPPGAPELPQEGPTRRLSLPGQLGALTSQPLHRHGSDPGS

Row | Compound | hERG current change (%, negative = inhibition) at 1uM [%]
1 | Cc1c(NC(=O)CSc2ccc3c(c2)OCCO3)c(=O)n(-c2ccccc2)n1C | 4.74
2 | COc1cc(/C=C(\C#N)C(=O)NCC2CCCO2)ccc1OCC(N)=O (centres unmarked) | 20.8
3 | O=C(O)c1ccc2oc(=O)c(S(=O)(=O)c3ccc(F)cc3)cc2c1 | 17.4
4 | CCCCOc1ccc(C2C(C(=O)c3cccs3)=C(O)C(=O)N2CCN2CCOCC2)cc1 (centres unmarked) | 17.2
5 | O=C(O)COCC(=O)Nc1ccccc1-c1ccccc1 | 25
6 | COc1cc2c(cc1OC)CN(C(=O)Nc1ccccc1Cl)CC2 | 13.4
7 | Cc1cccc2cc(C3CC(c4cccs4)=NN3S(C)(=O)=O)c(Cl)nc12 (centres unmarked) | 9.38
8 | O=C(Cn1cc(C(=O)c2cccs2)c2ccccc21)NCc1ccc2c(c1)OCO2 | 1.12
9 | O=S(=O)(c1ccccc1)N1CCN=C1SCc1cccnc1 | 7.15
10 | CC(=O)c1cccc(NC(=S)NC2CCCCC2)c1 | -8.44
11 | CC(NS(=O)(=O)c1ccc(Br)cc1)C(=O)Nc1nc2ccccc2[nH]1 (centres unmarked) | 0.413
12 | CCOC(=O)C1=C(O)CSC1=Nc1cccc(Cl)c1 | 11
13 | Cc1ccc(NCC(=O)N=Nc2c(O)[nH]c3ccc([N+](=O)[O-])cc23)cc1 | 3.12
14 | CCOc1cc(C2C(C(=O)c3ccc(C)cc3)=C(C(=O)OC)Nc3nnnn32)ccc1O (centres unmarked) | 9.37
15 | Cc1ccc(N2C(=O)/C(=C/c3cccnc3)SC2=S)cc1 | 16.7
16 | COc1cc(C(=O)OCC(=O)N2CCCC2)cc(OC)c1OC | 14.2
17 | COc1ccc(-c2nn(-c3ccccc3)cc2C(=O)n2nnc3ccccc32)cc1 | 3.22
18 | Br.O=C1c2ccccc2C(=O)N1c1cccc(-c2csc(Nc3ccc4c(c3)OCO4)n2)c1 | -1.77
19 | NC(=S)Nc1nccc(-c2cccs2)n1 | 11.7

Row | Compound | hERG current change (%, negative = inhibition) at 1uM [%]
20 | COc1ccc(/C=C2\SC(=S)N(CC(=O)N(C)C3CCS(=O)(=O)C3)C2=O)cc1 (centres unmarked) | 8.77
21 | CS(=O)(=O)N1CCN(c2ccc(NC(=S)NC(=O)c3cccs3)cc2)CC1 | 14
22 | CCOC(=O)c1c(NC(=O)C(C)NCc2ccco2)sc2c1CCC(C)C2.O=C(O)C(=O)O (centres unmarked) | 0.556
23 | O=C(NCc1nnc(SCC(=O)N2CCCC2)o1)c1cccc(C(F)(F)F)c1 | 12
24 | COc1cccc(-c2nc3ccc(N4CCN(C)CC4)cc3[nH]2)c1 | 1.18
25 | CC(C)CNC(=O)C1CC(=O)OC12CCCCC2 (centres unmarked) | 8.29
26 | CCCCn1nc(C(=O)Nc2cccc(C(=O)NC3CC3)c2)c2ccccc2c1=O | -41
27 | Cc1cccc(NC(=O)CSCC(=O)N(C)CC(=O)Nc2cccc(F)c2)c1 | 16.2
28 | COc1ccc(C2(c3ccc(OC)cc3)NC(=O)N(CC(=O)N3CCOCC3)C2=O)cc1 | 8.7
29 | Cc1ccc(OCC(=O)NNC(=S)NC(=O)C2CC2)c(C)c1 | 15.9
30 | Cc1ccccc1CNC(=O)Nc1ccc(Cl)cc1 | 13.4
31 | Cc1ccc(C(=O)NC(Cc2c[nH]c3ccccc23)C(=O)O)o1 (centres unmarked) | 8.54
32 | O=C(Nc1nccs1)c1ccc(-c2ccc(Cl)cc2)o1 | 12.5
33 | CC(C)Cn1c(N)c(C(=O)COC(=O)CCc2nc3ccccc3c(=O)[nH]2)c(=O)n(C)c1=O | -10.1
34 | Cl.O=C(CCN1CCCC1)Nc1ccc(Br)cc1 | 5.99
35 | CCN(c1ccccc1C(=O)O)S(=O)(=O)c1cccc2nsnc12 | 19.2
36 | OC(COc1ccc(C2C=CCC2)cc1)CN1CCCCC1 (centres unmarked) | -5
37 | NC(=O)C1CC(=O)N(c2ccc(OCc3ccc(F)cc3)cc2)C1 (centres unmarked) | 12.9
38 | COc1ccc(S(=O)(=O)NCC2CCC(C(=O)NCc3cccnc3)CC2)cc1 (centres unmarked) | 4.66

Row | Compound | hERG current change (%, negative = inhibition) at 1uM [%]
39 | CCN(CC)CCN(C(=O)c1ccc(CN2CCCCC2)o1)C(C(=O)NC1CCCCC1)c1ccc(F)cc1 (centres unmarked) | 8.81
40 | C=CCN(C(=O)CNC(=O)c1ccco1)C(C(=O)NC1CCCCC1)c1ccc(F)cc1 (centres unmarked) | 10.4
41 | O=C(NNC(=S)Nc1ccc(Cl)cc1Cl)c1ccc(N2CCOCC2)c([N+](=O)[O-])c1 | 5.96
42 | COc1ccc(OC)c(NC(=O)c2oc3ccccc3c2NC(=O)C2CC2)c1 | 11.5
43 | Cn1cc(CN2CCCC(C(=O)c3cc(F)ccc3F)C2)c2ccccc21 (centres unmarked) | 2.97
44 | CC(C)Cn1c(N)c(C(=O)COC(=O)c2c(F)cccc2F)c(=O)n(C)c1=O | 5.57
45 | CCOc1cccc(CN2CCCC(C(=O)Nc3ccc(-c4ccn[nH]4)cc3)C2)c1O (centres unmarked) | 5.57
46 | CN(C)S(=O)(=O)n1cc(/C=C(\NC(=O)c2ccccc2)C(=O)N2CCCC2)c2ccccc21 | 16
47 | CCCNc1nc(-c2cc(C(=O)Nc3ccccc3)on2)cc(C(C)C)n1 | 16.2
48 | O=C(C(=O)N1CCc2ccccc2C1)c1cn(CC(=O)N2CCCC2)c2ccccc12 | 3.39
49 | O=C(O)c1ccc(SCc2cnc(Cl)s2)cc1 | -79.6
50 | CCN(CC)CCCn1c2c(c(SCC(=O)Nc3nccs3)nc1=O)CCC2 | 7.84
51 | COc1ccc(Nc2ncnc3sc(-c4ccccc4)cc23)c(OC)c1 | 10.2
52 | Cn1c(=O)c2ncn(CC(=O)NC3CCCCCC3)c2n(C)c1=O | 10.1
53 | CCn1c(O)c(C=Nc2ccccc2)sc1=O | 4.82
54 | CCCCn1c(/N=C/c2ccc(N(C)C)cc2)nc2ccccc21 | 7.41
55 | CCOC(=O)COc1ncn(-c2ccccc2)n1 | 5.34
56 | O=C(COC(=O)c1cccc(F)c1)NC(=O)NC1CCCC1 | 12.2
